# Source: the supplement of paper PMC4604168 (melanoma cell lines)
# Some of the results follow. Most values come without repeats; read them as rough.
# Tested on: COLO829
# Assay: cell count relative to DMSO control; melanoma cells; higher = more viable cells
# Conditions: library dose: low library concentration; 72 h
# 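Note: cell number obtained by counting DAPI-stained nuclei in high-throughput microscope images with image analysis software, screen run in 1,536-well plates.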
row,SMILES,cell count [%]
1,"Nc1ccn([C@@H]2O[C@H](CO)[C@@H](O)C2(F)F)c(=O)n1 [gemcitabine] + O=c1cc(-c2cccc3c2Sc2ccccc2S3)oc(N2CCOCC2)c1 [KU55933] (first compound 0.0004 µM, partner dose 1 µM)",62.8
2,"Nc1nc(F)nc2c1ncn2[C@@H]1O[C@H](CO)[C@@H](O)[C@@H]1O [fludarabine] + Oc1cc(-c2nc(-c3ccccc3)[nH]c2-c2ccncc2)ccc1Cl [L779450] (first compound 0.2 µM, partner dose 0.2 µM)",87.6
3,"Nc1ccn([C@@H]2O[C@H](CO)[C@@H](O)C2(F)F)c(=O)n1 [gemcitabine] + CCN(CC)CCCCNc1ncc2cc(-c3cc(OC)cc(OC)c3)c(NC(=O)NC(C)(C)C)nc2n1 [PD173074] (first compound 0.0004 µM, partner dose 0.1 µM)",94.4
4,"CC(=O)O[C@@]12CO[C@@H]1C[C@H](O)[C@@]1(C)C(=O)[C@H](O)C3=C(C)[C@@H](OC(=O)[C@H](O)[C@@H](NC(=O)OC(C)(C)C)c4ccccc4)C[C@@](O)([C@@H](OC(=O)c4ccccc4)[C@H]21)C3(C)C [Docetaxel] + CCCCCCCCCCCC1=C(O)C(=O)C=C(O)C1=O [Embelin] (first compound 0.0001 µM, partner dose 1.2 µM)",56.9
5,"Nc1nc(F)nc2c1ncn2[C@@H]1O[C@H](CO)[C@@H](O)[C@@H]1O [fludarabine] + O=c1cc(-c2cccc3c2Sc2ccccc2S3)oc(N2CCOCC2)c1 [KU55933] (first compound 0.2 µM, partner dose 1 µM)",111
6,"CO[C@H]1C[C@@H]2CC[C@@H](C)[C@@](O)(O2)C(=O)C(=O)N2CCCC[C@H]2C(=O)O[C@H]([C@H](C)C[C@@H]2CC[C@@H](OCCO)[C@H](OC)C2)CC(=O)[C@H](C)/C=C(\C)[C@@H](O)[C@@H](OC)C(=O)[C@H](C)C[C@H](C)/C=C/C=C/C=C/1C [everolimus] + O=c1cc(-c2cccc3c2Sc2ccccc2S3)oc(N2CCOCC2)c1 [KU55933] (first compound 0.02 µM, partner dose 1 µM)",92.4
7,"CC(=O)O[C@@]12CO[C@@H]1C[C@H](O)[C@@]1(C)C(=O)[C@H](O)C3=C(C)[C@@H](OC(=O)[C@H](O)[C@@H](NC(=O)OC(C)(C)C)c4ccccc4)C[C@@](O)([C@@H](OC(=O)c4ccccc4)[C@H]21)C3(C)C [Docetaxel] + COc1ccc2c(c1)CCC1C2CCC2(C)C(NCCCCCCN3C(=O)C=CC3=O)CCC12 [U73122] (first compound 0.0001 µM, partner dose 0.4 µM)",52.1
8,"CC(=O)O[C@@]12CO[C@@H]1C[C@H](O)[C@@]1(C)C(=O)[C@H](O)C3=C(C)[C@@H](OC(=O)[C@H](O)[C@@H](NC(=O)OC(C)(C)C)c4ccccc4)C[C@@](O)([C@@H](OC(=O)c4ccccc4)[C@H]21)C3(C)C [Docetaxel] + O=C(O)C(=O)Nc1sc2c(c1C(=O)O)CCNC2 [TCS401] (first compound 0.0001 µM, partner dose 1.66667 µM)",38.7
9,"CO[C@H]1C[C@@H]2CC[C@@H](C)[C@@](O)(O2)C(=O)C(=O)N2CCCC[C@H]2C(=O)O[C@H]([C@H](C)C[C@@H]2CC[C@@H](OCCO)[C@H](OC)C2)CC(=O)[C@H](C)/C=C(\C)[C@@H](O)[C@@H](OC)C(=O)[C@H](C)C[C@H](C)/C=C/C=C/C=C/1C [everolimus] + c1cc(-c2cnn3cc(-c4ccc(OCCN5CCCCC5)cc4)cnc23)ccn1 [Dorsomorphin] (first compound 0.02 µM, partner dose 0.4 µM)",108
10,"CC(=O)c1c(C)c2cnc(Nc3ccc(N4CCNCC4)cn3)nc2n(C2CCCC2)c1=O [palbociclib] + Oc1cc(-c2nc(-c3ccccc3)[nH]c2-c2ccncc2)ccc1Cl [L779450] (first compound 0.04 µM, partner dose 0.2 µM)",122
11,"Nc1ncn([C@H]2C[C@H](O)[C@@H](CO)O2)c(=O)n1 [decitabine] + O=C(Nc1ccccc1)c1cc([N+](=O)[O-])ccc1Cl [GW9662] (first compound 0.1 µM, partner dose 2 µM)",93.4
